From PubChem BioAssay AID1963576 (National Center for Advancing Translational Sciences (NCATS), 2024) come the findings set out here.

The whole screen tested about 46,000 compounds, of which about 60 (0.1%) were called active. Roughly 3% stayed inconclusive and do not appear here. Calls follow the shape of the dose curve; as a rule, active = well fitted inhibition curve with a large enough effect; inconclusive = small, poorly fitted or top-dose-only effect; inactive = no such curve, though single readings can be large or run the other way. This is one part of the list.

This test is described as follows: Primary qHTS assay for Inhibitors of ovarian cancer metastasis using an organotypic tumor microenvironment (TME) model. Also: nearly all actives have a fitted effect of over 65% in size.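 As to activity change, negative = inhibition: plate controls were DMSO wells for no effect and tomatine positive control wells for full effect.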 The conditions noted are these: SKOV3ip1-GFP adhesion/invasion on 3D omental model, fluorescence; series mostly up to 45.8 µM; activity change, negative = inhibition: at the top concentration. An outline of the steps:
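qHTS, 4-pt dose (0.36-46 umol/L); SKOV3ip1-GFP, 1,200 cells/well, no FBS; primary omental fibroblast/mesothelial co-culture 48 h pre-grown; 2 h RT + 16 h 37 C; PBS wash, 4% PFA; GFP count 488/509 nm.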
For `O=C(Nc1c(-c2ccc(F)cc2)nc2ccccn12)c1cccc(F)c1`, the outcome was inactive.

With `Cc1c(C(=O)Nc2ccc(F)c(F)c2)oc2ccc(S(=O)(=O)N3CCC4(CC3)OCCO4)cc12`, the “activity change, negative = inhibition” value was inactive: 12.4%.

Turning to `COc1ccccc1CNC(=O)CN(c1ccc(C)cc1)S(=O)(=O)c1c(C)noc1C`, the “activity change, negative = inhibition” value is inactive: 35.7%.

Take `Cc1nn(-c2ccc(F)cc2)c(-n2cccc2)c1C(=O)N1CCN(c2ccccc2F)CC1`: the “activity change, negative = inhibition” value was inactive: -14.7%.

For `CCSc1ncc(Cl)c(C(=O)N(Cc2ccccc2)Cc2ccco2)n1`, the compound was classed as inactive.

For `O=C1NC(O)CCN1[C@@H]1O[C@H](CO)[C@H](O)[C@H]1O` (stereo not given in full), the “activity change, negative = inhibition” value is inactive: -15.1%.

As for `CCCOc1ccc(NC(=O)CC2C(=O)N(c3ccc(C)cc3)C(=O)N2C2CCCC2)cc1` (stereo not given), the outcome was inactive.

As for `O=C(CN1C(=O)CCc2cc(S(=O)(=O)N3CCOCC3)ccc21)NCc1ccccc1Cl`, the “activity change, negative = inhibition” value was inactive: 63.9%.

Regarding `COc1ccc(Cn2c(=O)c3oc4ccccc4c3n(Cc3cccc(F)c3)c2=O)cc1`, the “activity change, negative = inhibition” value is inactive: -3.41%.

As to `Cc1ccc(OCC(=O)Nc2ccc3nc(SCC(N)=O)sc3c2)cc1`, the “activity change, negative = inhibition” value was inactive: -2.98%.

`CCOC(=O)C1CCCN(S(=O)(=O)c2cc3c(cc2C)NC(=O)CO3)C1` (stereo not given): the “activity change, negative = inhibition” value was inactive: 10.3%.

Turning to `O=C(NCc1cccc(F)c1)c1ccc2nc(N3CCCCC3)sc2c1`, the “activity change, negative = inhibition” value is inactive: 6.57%.

For the compound `CC1=C(C(=O)Nc2cc(Cl)ccc2C)C(c2ccco2)n2ncnc2N1` (stereo not given), the “activity change, negative = inhibition” value is inactive: 33.8%.

With `O=C(CSc1nc2c([nH]c3ccccc32)c(=O)n1-c1ccc(F)cc1)NCc1ccco1`, the “activity change, negative = inhibition” value was inactive: -5.85%.

Consider `CCSc1nnc2c(n1)OC(c1sccc1C)N(C(C)=O)c1ccccc1-2` (stereo not given), for which the result was inactive.

In the case of `Cc1ccc(NC(=O)C2CCCN(S(=O)(=O)c3c(C)n[nH]c3C)C2)cc1Cl` (stereo not given), the outcome was inactive.

Turning to `O=C(NCCc1ccc(Cl)cc1)c1ccc2c(c1)N(Cc1c(F)cccc1Cl)C(=O)CS2`, the outcome was inactive.

For `COC(=O)c1c(C)oc2ccc(N(C(=O)Oc3ccccc3)S(=O)(=O)c3ccc(C(C)(C)C)cc3)cc12`, the “activity change, negative = inhibition” value was inactive: -14.5%.

With `Cc1c(C)n(C)c2ccc(C(=O)NCCc3ccc(Cl)cc3)cc12`, the “activity change, negative = inhibition” value is inactive: -0.271%.

Take `CCOc1ccc(NC(=O)Cn2c(=O)n(CCCC(=O)NCc3ccc4c(c3)OCO4)c(=O)c3ccccc32)cc1`: the outcome was inactive.

Regarding `Cc1ccc(CSc2ncc(Cl)c(C(=O)Oc3ccc(F)cc3)n2)cc1`, the “activity change, negative = inhibition” value was inactive: 17.2%.

For the compound `COc1cccc(CNC(=O)CSC2=Nc3ccccc3C3=NC(C)C(=O)N23)c1OC` (stereo not given), the “activity change, negative = inhibition” value was inactive: -16.3%.

`COc1ccc(-c2noc(N3CCN(c4ccc(C)cc4)C(C)C3)n2)cc1OC` (stereo not given): the compound was called inactive.

For `CCOC(=O)COc1ccc(CC)cc1C(=O)c1ccn2nc(-c3ccc(Cl)cc3)cc2n1`, the “activity change, negative = inhibition” value is inactive: -7.5%.

`Cc1ccc(-n2nc3ccc(NC(=O)Cc4ccc(Cl)cc4)cc3n2)cc1`: the “activity change, negative = inhibition” value is inactive: 2.09%.

On to `COC(=O)c1sc2cccc(F)c2c1S(=O)(=O)NCc1ccc(Cl)cc1`, for which the “activity change, negative = inhibition” value was inactive: -7.89%.

As for `CCOC(=O)c1c(NC(=O)C(C)Sc2cn(CCNC(=O)c3ccccc3OC)c3ccccc23)sc2c1CCC2` (stereo not given), the “activity change, negative = inhibition” value was inactive: 60.2%.

Consider `COc1ccccc1CNC(=O)c1cnc2c(-c3ccccc3)c(C)nn2c1C`, for which the result was inactive.

Regarding `O=C(c1ccc2c(c1)N(Cc1ccc(F)cc1)C(=O)c1ccccc1S2(=O)=O)N1CCN(c2ccccn2)CC1`, the outcome was inactive.

Consider `Fc1ccc(-c2cc(C(F)(F)F)nc(NCc3ccccc3)n2)cc1`, for which the outcome was inactive.

For the compound `Cc1ccc(C)c(S(=O)(=O)NCCc2csc(-c3ccc(Cl)cc3)n2)c1`, the “activity change, negative = inhibition” value was inactive: -9.55%.

Consider `Cc1sc2c(c1C)c(=O)n(CCc1ccccc1)c(=O)n2Cc1ccc(F)cc1`, for which the “activity change, negative = inhibition” value is inactive: -0.319%.

As for `O=S(=O)(NCCS(=O)(=O)N1CCN(c2ccccc2)CC1)c1ccc(Cl)cc1`, the “activity change, negative = inhibition” value is inactive: 0.153%.

In the case of `Cc1cccc(NC(=O)C2CCCN(S(=O)(=O)c3ccc4c(c3)oc(=O)n4C)C2)c1` (stereo not given), the outcome was inactive.

`O=C(CCC(=O)c1ccccc1)Nc1ccc(F)c(Cl)c1`: the “activity change, negative = inhibition” value was inactive: 13.5%.

Turning to `COc1ccc(OC)c(/C=C(\C#N)c2nc3ccccc3c(=O)[nH]2)c1`, the call was inactive.

For `COc1ccc(CCN2CC(C(=O)NCCc3ccccc3)CC2=O)cc1OC` (stereo not given), the “activity change, negative = inhibition” value is inactive: 6.23%.

Take `O=C(c1cnc(N2CCCCC2)c2ccccc12)N1CCN(c2ccc(Cl)cc2)CC1`: the “activity change, negative = inhibition” value was inactive: -6.92%.

Consider `COc1ccc(C(=O)Nc2ccccc2-c2nc(-c3ccc(OC)cc3)no2)cc1`, for which the “activity change, negative = inhibition” value was inactive: -6.53%.

As to `CC(=O)c1ccc(N2CCN(C(=O)c3cc4ccc5cccnc5c4[nH]3)CC2)cc1`, the “activity change, negative = inhibition” value is inactive: 6.16%.

`O=C(Nc1ccc(Cl)cc1)c1cc2nc(-c3ccc4c(c3)OCO4)cc(C(F)(F)F)n2n1`: the “activity change, negative = inhibition” value was inactive: 9.68%.

For `CCn1c(=O)n(-c2cccc(Cl)c2)c(=O)c2sc3ccccc3c21`, the “activity change, negative = inhibition” value was inactive: -4%.

Consider `CCc1nn(CC(=O)N2CCN(c3ccc(Cl)cc3)CC2)c(=O)c2cc3occc3n12`, for which the “activity change, negative = inhibition” value was inactive: -27.9%.

In the case of `CCCC(=O)C1=C(c2cccc(OC)c2)N(C(=O)CCC)n2c(C)nnc2S1`, the “activity change, negative = inhibition” value is inactive: -27.8%.

On to `Cc1cc(C)c2sc(N(Cc3cccnc3)C(=O)CCOc3ccccc3)nc2c1`, for which the “activity change, negative = inhibition” value is inactive: 2.72%.

Turning to `CCOC(=O)c1ccc2c(c1)[C@@H]1C=CC[C@@H]1[C@H](c1cccc(OC)c1OC)N2`, the “activity change, negative = inhibition” value is inactive: -20.6%.

For `CSc1ccc(CNC(=O)CN2C(=O)C3CCCCN3c3ccc(C(=O)N4CCCC4)cc32)cc1` (stereo not given), the “activity change, negative = inhibition” value is inactive: -3.79%.

Consider `Cn1ccc2c(OCC(=O)Nc3ccc([N+](=O)[O-])cc3)cccc2c1=O`, for which the “activity change, negative = inhibition” value is inactive: -0.976%.

For `O=C(Nc1cc(C(F)(F)F)cc(C(F)(F)F)c1)c1cc(Cl)ccc1O`, the “activity change, negative = inhibition” value is inactive: -13.2%.

In the case of `CCc1ccc(NC(=O)C2CCN(S(=O)(=O)c3c(C)noc3/C=C/c3ccco3)CC2)cc1`, the “activity change, negative = inhibition” value was inactive: 0.143%.

On to `FC(F)(F)c1ccc(-c2noc(-c3ccccc3Br)n2)cc1`, for which the “activity change, negative = inhibition” value is inactive: 13%.

Turning to `COC(=O)c1cc2sc(C)cc2n1CC(=O)Nc1cccc(SC)c1`, the “activity change, negative = inhibition” value is inactive: 2.58%.

`COc1ccc(NC(=O)c2cc(S(=O)(=O)NCCC3=CCCCC3)ccc2F)cc1`: the “activity change, negative = inhibition” value is inactive: 3.72%.

For `COc1ccc(-c2nc3cc(C(C)C)ccc3o2)cc1NC(=O)c1ccc(C)c(Cl)c1`, the “activity change, negative = inhibition” value is inactive: 0.812%.

Turning to `O=S(=O)(NCc1nc2cccnc2n1Cc1ccc(F)cc1)c1ccc(Cl)s1`, the outcome was inactive.

As for `CCOC(=O)C1CCN(C(=O)c2ccc3c(c2)sc2nc(-c4ccc(C)cc4)cn23)CC1`, the “activity change, negative = inhibition” value is inactive: -0.167%.

For `Cc1ccc(CCNC(=O)c2ccc(CS(=O)(=O)Cc3cccc(C)c3)o2)cc1`, the “activity change, negative = inhibition” value was inactive: -0.837%.

Turning to `CCCCCC(=O)N(c1ccc(OCC)cc1)S(=O)(=O)c1ccc2c(c1)n(C)c(=O)n2C`, the “activity change, negative = inhibition” value was inactive: -1.55%.

As for `Cc1ccc(NC(=O)Cn2cc3c(n2)CCC(C)C3)cc1C` (stereo not given), the “activity change, negative = inhibition” value is inactive: -12.3%.

For the compound `COc1ccc(Cn2ccc3nc(C)c(C(=O)N4CCN(c5ccccc5F)CC4)cc3c2=O)cc1`, the “activity change, negative = inhibition” value was inactive: -10.8%.
